# Measured values published in the supplement of paper PMC12217912.
# The list shows a part of the results. The full chains were built here from the parent and the listed change. Inactive controls read about 0.05.
# B1: TEV protease; numbered along this chain (parent)
# chain: MGESLFKGPRDYNPISSSICHLTNESDGHTTSLYGIGFGPFIITNKHLFRRNNGTLVVQSLHGVFKVKDTTTLQQHLVDGRDMIIIRMPKDFPPFPQKLKFREPQREERICLVTTNFQTKSMSSMVSDTSCTFPSGDGIFWKHWIQTKDGQCGSPLVSTRDGFIVGIHSASNFTNTNNYFTSVPKNFMELLTNQEAQQWVSGWRLNADSVLWGGHKVFMVKPEEPFQPVKEATQL
# Variants of: B1
# Assay: raw area under fraction-flipped curve 0-4 h after induction (AUC4h, not background-subtracted), DNA-recorder readout of cleavage of the substrate (dimensionless); higher = more cleavage of the substrate by the protease variant
# Conditions: temperature: 34 °C; time window: 0-4 h after rhamnose induction
# Description: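 In vivo DNA recorder in E. coli TOP10(DE3) ΔrhaA at 34 °C. Each TEVp single-site mutant (parent TEVp 0) is paired with a single-site variant of the 7-mer TEVs (canonical ENLYFQ|S). The substrate sits between flexible linkers in a Bxb1-sfGFP-TEVs-SsrA fusion, so cleavage stabilises Bxb1 and speeds flipping of a recombination array, read by NGS. The value is the raw area under the fraction-flipped curve over 0-4 h after rhamnose induction (AUC4h), with ≥20 reads per time point. It is not background-subtracted; inactive controls average about 0.047.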
# 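Note: Bxb1 expression induced with 0.2% (w/v) L-rhamnose at OD600 near 0.5, cultures sampled hourly, flipped fraction per protease–substrate barcode pair counted by paired-end Illumina sequencing.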
Variant,area with substrate ANLYFQS,area with substrate CNLYFQS,area with substrate DNLYFQS,area with substrate FNLYFQS,area with substrate GNLYFQS,area with substrate HNLYFQS,area with substrate KNLYFQS,area with substrate LNLYFQS,area with substrate NNLYFQS,area with substrate PNLYFQS,area with substrate QNLYFQS,area with substrate SNLYFQS,area with substrate WNLYFQS,area with substrate YNLYFQS,area with substrate INLYFQS,area with substrate RNLYFQS,area with substrate TNLYFQS,area with substrate VNLYFQS,area with substrate MNLYFQS
MGESLFKGPRDYNPISSSICHLTNESDGHTTSLYGIGFGPFIITNKHLFRRNNGTLVVQSLHGVFKVKDTTTLQQHLVDNRDMIIIRMPKDFPPFPQKLKFREPQREERICLVTTNFQTKSMSSMVSDTSCTFPSGDGIFWKHWIQTKDGQCGSPLVSTRDGFIVGIHSASNFTNTNNYFTSVPKNFMELLTNQEAQQWVSGWRLNADSVLWGGHKVFMVKPEEPFQPVKEATQL [G80N],0.0762,0.0532,0.104,0.0556,0.0679,0.0657,0.0705,0.0729,0.0579,0.0802,0.0802,0.0812,0.0792,0.0681,–,–,–,–,–
MGESLFKGPRDYNPISSSICHLTNESDGHTTSLYGIGFGPFIITNKHLFRRNNGTLVVQSLHGVFKVKDTTTLQQHLVDTRDMIIIRMPKDFPPFPQKLKFREPQREERICLVTTNFQTKSMSSMVSDTSCTFPSGDGIFWKHWIQTKDGQCGSPLVSTRDGFIVGIHSASNFTNTNNYFTSVPKNFMELLTNQEAQQWVSGWRLNADSVLWGGHKVFMVKPEEPFQPVKEATQL [G80T],0.0685,–,0.0774,0.0546,0.065,–,–,0.0632,–,0.0623,0.0664,0.0668,0.0797,–,0.0604,0.0707,0.052,0.0631,–
MGESLFKGPRDYNPISSSICHLTNESDGHTTSLYGIGFGPFIITNKHLFRRNNGTLVVQSLHGVFKVKDTTTLQQHLVDGNDMIIIRMPKDFPPFPQKLKFREPQREERICLVTTNFQTKSMSSMVSDTSCTFPSGDGIFWKHWIQTKDGQCGSPLVSTRDGFIVGIHSASNFTNTNNYFTSVPKNFMELLTNQEAQQWVSGWRLNADSVLWGGHKVFMVKPEEPFQPVKEATQL [R81N],0.0764,0.0611,0.0695,–,–,0.0863,0.0617,–,0.069,0.0649,–,–,–,–,0.0509,–,0.0491,–,–
MGESLFKGPRDYNPISSSICHLTNESDGHTTSLYGIGFGPFIITNKHLFRRNNGTLVVQSLHGVFKVKDTTTLQQHLVDGTDMIIIRMPKDFPPFPQKLKFREPQREERICLVTTNFQTKSMSSMVSDTSCTFPSGDGIFWKHWIQTKDGQCGSPLVSTRDGFIVGIHSASNFTNTNNYFTSVPKNFMELLTNQEAQQWVSGWRLNADSVLWGGHKVFMVKPEEPFQPVKEATQL [R81T],0.0451,0.0641,0.0616,0.0379,0.0674,–,0.0674,0.0679,–,0.0639,–,0.0608,0.0581,0.0574,0.054,–,0.0534,–,0.0608
MGESLFKGPRDYNPISSSICHLTNESDGHTTSLYGIGFGPFIITNKHLFRRNNGTLVVQSLHGVFKVKDTTTLQQHLVDGRDMIIIREPKDFPPFPQKLKFREPQREERICLVTTNFQTKSMSSMVSDTSCTFPSGDGIFWKHWIQTKDGQCGSPLVSTRDGFIVGIHSASNFTNTNNYFTSVPKNFMELLTNQEAQQWVSGWRLNADSVLWGGHKVFMVKPEEPFQPVKEATQL [M88E],0.028,0.0403,0.0779,0.0622,0.0655,0.0494,0.0504,0.0305,–,0.0442,–,0.0478,0.0554,–,0.0617,–,0.0538,–,0.0455
MGESLFKGPRDYNPISSSICHLTNESDGHTTSLYGIGFGPFIITNKHLFRRNNGTLVVQSLHGVFKVKDTTTLQQHLVDGRDMIIIRGPKDFPPFPQKLKFREPQREERICLVTTNFQTKSMSSMVSDTSCTFPSGDGIFWKHWIQTKDGQCGSPLVSTRDGFIVGIHSASNFTNTNNYFTSVPKNFMELLTNQEAQQWVSGWRLNADSVLWGGHKVFMVKPEEPFQPVKEATQL [M88G],0.0416,–,0.0634,0.0427,–,0.0459,–,0.0418,0.0394,0.0479,–,–,–,–,0.0438,–,–,0.0498,0.056
MGESLFKGPRDYNPISSSICHLTNESDGHTTSLYGIGFGPFIITNKHLFRRNNGTLVVQSLHGVFKVKDTTTLQQHLVDGRDMIIIRWPKDFPPFPQKLKFREPQREERICLVTTNFQTKSMSSMVSDTSCTFPSGDGIFWKHWIQTKDGQCGSPLVSTRDGFIVGIHSASNFTNTNNYFTSVPKNFMELLTNQEAQQWVSGWRLNADSVLWGGHKVFMVKPEEPFQPVKEATQL [M88W],0.054,0.0403,0.0694,–,0.0664,0.0532,0.0447,–,0.0514,0.0482,0.0647,–,0.0232,–,–,–,0.052,0.0564,0.0516
MGESLFKGPRDYNPISSSICHLTNESDGHTTSLYGIGFGPFIITNKHLFRRNNGTLVVQSLHGVFKVKDTTTLQQHLVDGRDMIIIRYPKDFPPFPQKLKFREPQREERICLVTTNFQTKSMSSMVSDTSCTFPSGDGIFWKHWIQTKDGQCGSPLVSTRDGFIVGIHSASNFTNTNNYFTSVPKNFMELLTNQEAQQWVSGWRLNADSVLWGGHKVFMVKPEEPFQPVKEATQL [M88Y],0.0505,0.0517,–,–,–,–,–,0.051,0.0393,0.0371,–,–,–,–,–,–,–,0.0605,0.0298
MGESLFKGPRDYNPISSSICHLTNESDGHTTSLYGIGFGPFIITNKHLFRRNNGTLVVQSLHGVFKVKDTTTLQQHLVDGRDMIIIRMPKDFSPFPQKLKFREPQREERICLVTTNFQTKSMSSMVSDTSCTFPSGDGIFWKHWIQTKDGQCGSPLVSTRDGFIVGIHSASNFTNTNNYFTSVPKNFMELLTNQEAQQWVSGWRLNADSVLWGGHKVFMVKPEEPFQPVKEATQL [P93S],0.0501,0.0519,0.0567,–,0.088,0.0662,0.0671,0.0545,0.0619,0.0469,–,–,0.0663,–,–,–,0.0525,0.0676,–
MGESLFKGPRDYNPISSSICHLTNESDGHTTSLYGIGFGPFIITNKHLFRRNNGTLVVQSLHGVFKVKDTTTLQQHLVDGRDMIIIRMPKDFPPFKQKLKFREPQREERICLVTTNFQTKSMSSMVSDTSCTFPSGDGIFWKHWIQTKDGQCGSPLVSTRDGFIVGIHSASNFTNTNNYFTSVPKNFMELLTNQEAQQWVSGWRLNADSVLWGGHKVFMVKPEEPFQPVKEATQL [P96K],0.0598,0.0547,0.0933,–,–,0.0683,0.0613,0.0593,–,0.0689,–,0.0634,0.0632,–,0.0684,–,–,–,0.0559
